Laboratory results published in publication PMC5454113, “Factor V has an anticoagulant cofactor activity that targets the early phase of coagulation” (The Journal of Biological Chemistry, 2017).

Columns and labels:
activated factor X (FXa) [1] = target: T1, activated factor X (FXa) (UniProt P00742 41-179; P00742 235-488); experiment: cell-based or functional assay
activated factor X (FXa) [2] = target: T1, activated factor X (FXa); experiment: enzyme inhibition kinetics (chromogenic substrate); as a1, with 100 nM protein S, no FV; conditions: both partners purified
T1 sequence (P00742 41-179, chain 1 of 2): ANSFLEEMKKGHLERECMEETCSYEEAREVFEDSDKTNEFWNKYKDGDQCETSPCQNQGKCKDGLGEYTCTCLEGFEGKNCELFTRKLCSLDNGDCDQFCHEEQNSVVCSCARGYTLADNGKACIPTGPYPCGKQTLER
T1 sequence (P00742 235-488, chain 2 of 2): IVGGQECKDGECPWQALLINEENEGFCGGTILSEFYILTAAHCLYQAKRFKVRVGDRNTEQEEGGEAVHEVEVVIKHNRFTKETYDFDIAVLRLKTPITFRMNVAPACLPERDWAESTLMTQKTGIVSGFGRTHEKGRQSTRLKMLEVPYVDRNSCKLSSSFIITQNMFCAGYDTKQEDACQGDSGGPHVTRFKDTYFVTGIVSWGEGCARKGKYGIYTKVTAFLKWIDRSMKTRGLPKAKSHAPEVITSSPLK

activated factor X (FXa) [3] = target: T1, activated factor X (FXa); experiment: enzyme inhibition kinetics (chromogenic substrate); as a1, with 30 nM recombinant FV, no protein S; conditions: both partners purified
activated factor X (FXa) [4] = target: T1, activated factor X (FXa); experiment: as above; conditions: both partners purified; remark: listed apart in the source
activated factor X (FXa) [5] = target: T1, activated factor X (FXa); experiment: enzyme inhibition kinetics (chromogenic substrate); as a1, with 100 nM protein S chimera III, no FV; conditions: both partners purified
activated factor X (FXa) [6] = target: T1, activated factor X (FXa); experiment: enzyme inhibition kinetics (chromogenic substrate); as a1, with 30 nM recombinant FV and 100 nM protein S; conditions: both partners purified
activated factor X (FXa) [7] = target: T1, activated factor X (FXa); experiment: enzyme inhibition kinetics (chromogenic substrate); as a1, with 30 nM FV^ΔIIa (FV R709Q/R1018Q/R1545Q), no protein S; conditions: both partners purified
activated factor X (FXa) [8] = target: T1, activated factor X (FXa); experiment: enzyme inhibition kinetics (chromogenic substrate); as a1, with 30 nM recombinant FV and 100 nM protein S chimera III; conditions: both partners purified
activated factor X (FXa) [9] = target: T1, activated factor X (FXa); experiment: enzyme inhibition kinetics (chromogenic substrate); as a1, with 30 nM FV810 (recombinant B domain-deleted FV), no protein S; conditions: both partners purified
activated factor X (FXa) [10] = target: T1, activated factor X (FXa); experiment: enzyme inhibition kinetics (chromogenic substrate); as a1, with 30 nM FV^ΔIIa (FV R709Q/R1018Q/R1545Q) and 100 nM protein S; conditions: both partners purified
activated factor X (FXa) [11] = target: T1, activated factor X (FXa); experiment: enzyme inhibition kinetics (chromogenic substrate); as a1, with 30 nM FV810 (recombinant B domain-deleted FV) and 100 nM protein S; conditions: both partners purified
activated factor X (FXa) [12] = target: T1, activated factor X (FXa); experiment: enzyme inhibition kinetics (chromogenic substrate); as a1, with 30 nM FVa (FV activated with human α thrombin, stopped with hirudin), no protein S; conditions: both partners purified
activated factor X (FXa) [13] = target: T1, activated factor X (FXa); experiment: enzyme inhibition kinetics (chromogenic substrate); as a1, with 30 nM FVa (FV activated with human α thrombin, stopped with hirudin) and 100 nM protein S; conditions: both partners purified
activated factor X (FXa) [14] = target: T1, activated factor X (FXa); experiment: enzyme inhibition kinetics (chromogenic substrate); FXa 0.3 nM, TFPI 0–16 nM, S-2765 200 uM, 25 uM phospholipids (DOPC/DOPS/DOPE 60:20:20), 5 mM CaCl2, 25 °C, 60 min; no protein S, no FV; Ki = encounter complex, Ki* = overall dissociation constant; conditions: both partners purified
activated factor X (FXa) [15] = target: T1, activated factor X (FXa); experiment: as above; conditions: both partners purified; remark: listed apart in the source
activated factor X (FXa) [16] = target: T1, activated factor X (FXa); experiment: enzyme inhibition kinetics (chromogenic substrate); as a1, with 100 nM protein S, no FV; conditions: both partners purified; remark: listed apart in the source
activated factor X (FXa) [17] = target: T1, activated factor X (FXa); experiment: enzyme inhibition kinetics (chromogenic substrate); as a1, with 30 nM recombinant FV, no protein S; conditions: both partners purified; remark: listed apart in the source
activated factor X (FXa) [18] = target: T1, activated factor X (FXa); experiment: enzyme inhibition kinetics (chromogenic substrate); as a1, with 30 nM recombinant FV and 100 nM protein S; conditions: both partners purified; remark: listed apart in the source
activated factor X (FXa) [19] = target: T1, activated factor X (FXa); experiment: enzyme inhibition kinetics (chromogenic substrate); FXa 0.3 nM, TFPI 0–16 nM, S-2765 200 uM, 25 uM phospholipids (DOPC/DOPS/DOPE 60:20:20), 5 mM CaCl2, 25 °C, 60 min; no protein S, no FV; Ki = encounter complex, Ki* = overall dissociation constant; conditions: both partners purified; remark: listed apart in the source

B1: Tissue factor pathway inhibitor (TFPI), recombinant full-length (natural protein)
chain: not shown
notes: estimated by ELISA to be 88–100% full-length; also called full-length TFPI
- IC50 of TFPI for FXa-catalysed prothrombin activation (thrombin substrate S-2238), no FV, no protein S (activated factor X (FXa) [1]): 2940 pM
- IC50 of TFPI for FXa-catalysed prothrombin activation (thrombin substrate S-2238), no FV, with 100 nM protein S (activated factor X (FXa) [1]): 510 pM
- IC50 of TFPI for FXa-catalysed prothrombin activation (thrombin substrate S-2238), with 200 pM FV and 100 nM protein S (activated factor X (FXa) [1]): 0.25 nM
- IC50 of TFPI for FXa-catalysed prothrombin activation (thrombin substrate S-2238), with 200 pM FV, no protein S (activated factor X (FXa) [1]): 4.12 nM
- IC50 of TFPI for FXa-catalysed prothrombin activation (thrombin substrate S-2238), with 200 pM FV^ΔIIa and 100 nM protein S (activated factor X (FXa) [1]): 0.25 nM
- IC50 of TFPI for FXa-catalysed prothrombin activation (thrombin substrate S-2238), with 200 pM FV^ΔIIa, no protein S (activated factor X (FXa) [1]): 2.79 nM
- Ki (activated factor X (FXa) [2]): 16 pM
- Ki of the encounter complex (first step) (activated factor X (FXa) [2]): 700 pM
- Ki (activated factor X (FXa) [3]): 60 pM
- Ki of the encounter complex (first step) (activated factor X (FXa) [3]): 3870 pM
- Ki (activated factor X (FXa) [4]): 42 pM
- Ki of the encounter complex (first step) (activated factor X (FXa) [4]): 2030 pM
- Ki (activated factor X (FXa) [5]): 47 pM
- Ki of the encounter complex (first step) (activated factor X (FXa) [5]): 2870 pM
- Ki (activated factor X (FXa) [6]): 8 pM
- Ki of the encounter complex (first step) (activated factor X (FXa) [6]): 360 pM
- Ki (activated factor X (FXa) [7]): 37 pM
- Ki of the encounter complex (first step) (activated factor X (FXa) [7]): 1700 pM
- Ki (activated factor X (FXa) [8]): 72 pM
- Ki of the encounter complex (first step) (activated factor X (FXa) [8]): 1490 pM
- Ki (activated factor X (FXa) [9]): 21 pM
- Ki of the encounter complex (first step) (activated factor X (FXa) [9]): 7160 pM
- Ki (activated factor X (FXa) [10]): 13 pM
- Ki of the encounter complex (first step) (activated factor X (FXa) [10]): 230 pM
- Ki (activated factor X (FXa) [11]): 40 pM
- Ki of the encounter complex (first step) (activated factor X (FXa) [11]): 2230 pM
- Ki (activated factor X (FXa) [12]): 160 pM
- Ki of the encounter complex (first step) (activated factor X (FXa) [12]): 3960 pM
- Ki (activated factor X (FXa) [13]): 19 pM
- Ki of the encounter complex (first step) (activated factor X (FXa) [13]): 1870 pM
- Ki (activated factor X (FXa) [14]): 34 pM
- Ki of the encounter complex (first step) (activated factor X (FXa) [14]): 2710 pM
- Ki (activated factor X (FXa) [15]): 65 pM
- Ki of the encounter complex (first step) (activated factor X (FXa) [15]): 2160 pM

B2: TFPI E226Q (natural protein)
chain: not shown
- Ki (activated factor X (FXa) [16]): 28 pM
- Ki of the encounter complex (first step) (activated factor X (FXa) [16]): 2610 pM
- Ki (activated factor X (FXa) [17]): 25 pM
- Ki of the encounter complex (first step) (activated factor X (FXa) [17]): 4380 pM
- Ki (activated factor X (FXa) [18]): 22 pM
- Ki of the encounter complex (first step) (activated factor X (FXa) [18]): 2070 pM
- Ki (activated factor X (FXa) [19]): 21 pM
- Ki of the encounter complex (first step) (activated factor X (FXa) [19]): 2230 pM
